# Laboratory results published in the supplement of paper PMC3334620.
# In all, about 33,000 sequences were measured (“E-score (-0.5 to 0.5)”: median about -0.032, highest 2% from about 0.36 on). Some of the results follow.
# Target: T1, Sko1 (UniProt Q02100)
# T1 sequence: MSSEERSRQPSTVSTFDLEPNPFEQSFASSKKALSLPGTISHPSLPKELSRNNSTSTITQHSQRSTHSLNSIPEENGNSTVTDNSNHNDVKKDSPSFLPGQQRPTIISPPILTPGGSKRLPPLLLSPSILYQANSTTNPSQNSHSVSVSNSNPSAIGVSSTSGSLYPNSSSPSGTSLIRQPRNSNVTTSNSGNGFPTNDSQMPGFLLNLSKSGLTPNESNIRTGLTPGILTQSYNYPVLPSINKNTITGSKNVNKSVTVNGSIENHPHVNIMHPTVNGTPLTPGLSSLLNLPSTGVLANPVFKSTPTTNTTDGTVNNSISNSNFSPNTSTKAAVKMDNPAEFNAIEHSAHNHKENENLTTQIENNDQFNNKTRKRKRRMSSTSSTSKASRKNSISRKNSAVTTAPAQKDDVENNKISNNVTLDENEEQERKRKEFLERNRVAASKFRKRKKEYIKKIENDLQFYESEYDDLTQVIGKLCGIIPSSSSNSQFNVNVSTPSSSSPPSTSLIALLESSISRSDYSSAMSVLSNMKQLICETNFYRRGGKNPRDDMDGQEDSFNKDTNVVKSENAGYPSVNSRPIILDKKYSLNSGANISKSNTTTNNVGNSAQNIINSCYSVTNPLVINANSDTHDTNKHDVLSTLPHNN
# Assay: PBM E-score (8-mer binding enrichment) (E-score (-0.5 to 0.5)); higher = stronger / more preferred TF binding; most listed sequences are background and not binding sites
# Conditions: protein concentration: 200 nM; construct: GST-full length
# How it was run: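 Universal all-10-mer Agilent arrays, double-stranded by primer extension on fresh or once-stripped slides, were probed with about 100-200 nM GST-tagged yeast transcription factors made by PURExpress. Fluorescent anti-GST detected bound protein, and masliner normalised the scans. E-scores from the Universal PBM Analysis Suite were given to each ungapped eight-base word pooled with its reverse complement.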
row,Sequence,PBM E-score
1,GACCCTAA,-0.0869
2,GAGTTTAA,0.0584
3,CGCTTGAC,-0.0256
4,CTCTGAAC,-0.0539
5,CGGATGAC,0.315
6,ATTCAGGG,-0.0228
7,CGCATTGA,0.187
8,GGTGAAGA,-0.21
9,ACTAGCGG,-0.259
10,ATCGGACG,-0.0901
11,CAAGGAAA,-0.222
12,TAGAGTCA,-0.0742
13,ATGCTCCC,-0.163
14,GTTTTCCA,0.248
15,TATGTTAA,0.206
16,GGCCCTGA,-0.187
17,CGCGACTA,-0.0528
18,GACGAGAC,0.00066
19,CGCTCTAA,0.104
20,AATGTCAT,0.31
21,AAAAGACT,-0.257
22,ATACAGCA,0.121
23,TACTTGGA,0.23
24,CAGCCGGG,-0.162

row,Sequence,PBM E-score
1,GTGACGGA,0.174
2,CGCAGGAC,-0.0992
3,CATATATG,0.292
4,TAGGCTGA,-0.0934
5,TAGGGCCA,-0.202
6,AAAAGTTG,-0.0173
7,CAAACTCA,0.0745
8,ACCGTCAG,-0.0341
9,CGCCAATC,-0.0362
10,CCCACTCG,-0.339
11,ATTAGTTC,0.201
12,ACCTTTCC,-0.271
13,CGAGGGGC,-0.273
14,ACCTTTTG,-0.246
15,CTCCAGTC,-0.0948
16,AGTGAGGG,-0.23
17,CGGAAACG,0.0984
18,ACGGCATA,0.0529
19,ATCCACTC,-0.187
20,TCGAGCCA,-0.0914
21,AACAGTTG,0.0405
22,ATTAGCGC,0.076
23,ACCCGCCT,-0.125
24,AAACGTAG,0.393

row,Sequence,PBM E-score
1,AAGGACTC,-0.157
2,GCAATTAA,0.0783
3,AAGGAGAG,-0.225
4,CAAACATA,-0.0407
5,ATGTTCGG,-0.225
6,ACGTGATC,0.432
7,CTATACTA,0.047
8,AGACCAAA,-0.0522
9,CTTCGTAC,0.0189
10,ACCTAACT,0.0945
11,AGGTGAAC,0.0479
12,GATGTGGA,0.0944
13,GAATCCGA,-0.0433
14,CTACAAAC,-0.037
15,CCTCAACG,-0.108
16,GACCCCCA,-0.416
17,ATCATTCC,0.0521
18,CAGCATTA,0.0417
19,AAGCACAA,0.0339
20,CTAGCCAG,-0.193
21,AATCTCGC,0.16
22,AACTTTTG,0.117
23,GGCTATAC,-0.155
24,AAAGCTAA,0.122

row,Sequence,PBM E-score
1,GGACCTGA,-0.26
2,ATGCAGGG,-0.292
3,AGGTCCGC,-0.377
4,CGATCGCA,0.11
5,CGCTGGGC,-0.255
6,ACAAATAA,0.211
7,CCACTCGC,-0.25
8,TACGCACA,0.401
9,CAGTCGGG,0.0527
10,ATCCGTTA,0.271
11,AGTAATCA,0.0126
12,AGGATGCA,-0.106
13,ACGTCCTA,0.317
14,GAACGCAC,0.202
15,CAAAGACA,0.0981
16,TATTCGGA,-0.0522
17,CGACCGAC,-0.012
18,TGGGCGAA,-0.1
19,GAACCGGA,-0.0591
20,ATATCCGG,-0.121
21,CCTGGTTA,-0.0989
22,ACAAATTG,0.0263
